# Reference: publication PMC5892938
# The list shows a part of the results. The exact form of the protein is not confirmed.
# Biological target: GST-SBP-ILF3 (Homo sapiens) (UniProt Q12906)
# Assay: targeted RNA Bind-n-Seq
# Conditions: RBNS binding buffer: 25 mM Tris pH 7.5, 150 mM KCl, 3 mM MgCl2, 0.1% Tween, 0.5 mg/mL BSA, 1 mM DTT; 27 nM protein, 750 pM RNA pool; temperature not stated; high values mean tight binding; sequences stand for … in GGGUAAAAGCGAGGUGAA…CGGGACAAGUAUUAUGGG
row,Sequence,binding signal (log2 fold change)
1,UUCCUUCUUCCUCCAAGGGAGGGAGAGGGA [ctspaired],0.0668
2,GGUGUGUGUGUUGGUGCCUAACACAUACAC [gtspaired],-0.399
3,UUUUUUUUUUGAGAGCGAAACGUUCUCCAG [tttttgagapaired],-0.0109
4,GUGGUGUGUGUUGGAGCCUAACACACAUCG [gtspaired],-0.68
5,GGUGUGUGUGUUGGCCUCUAACACAUAUAC [gtspaired],-0.751
6,GUUGGUGGUGUUGGCACCUAACACCAUCAA [gtspaired],-0.244
7,GUGUGUUGUGUUGGCUCCUAACACAGCGCG [gtspaired],-0.64
8,UUUUUUUUUUGAGAGUGAGGCACUCUCCUG [tttttgagapaired],0.477
9,GUGGUGUGUGUUGGUUCCUAACACAUACUA [gtspaired],-0.524
10,UUUUUUUUUUGAGAGCGAACCGCUCUCCGG [tttttgagapaired],0.24
11,GGUGGUUGUGUUGGUAUCUAACACAGCCGC [gtspaired],-0.631
12,UUUUUUUUUUGAGAGCGUGGCGCUCUCCUG [tttttgagapaired],0.434
13,GUGGUGUGUGUUGGCCUCUAACACACGCCG [gtspaired],-0.705
14,GUGGUGUGUGUUGGCUUCUAACACAUACCA [gtspaired],-0.467
15,UUUUUUUUUUGAGAGGGUGGCCCUCUCCUA [tttttgagapaired],0.726
16,UUUUUUUUUUGAGAUGGUGACUAUCUCCAG [tttttgagapaired],0.461
17,UUUUUUUUUUGAGAGCGUCACGCUCUCCUG [tttttgagapaired],0.382
18,UUUUUUUUUUGAGAUGGAGACCAUCUUCUA [tttttgagapaired],0.125
19,UUUUUUUUUUGAGAGGGAGUCCCUCUCCGG [tttttgagapaired],0.836
20,UUCCUUCUUCCUCCACUGGAGGGAGAGGGA [ctspaired],-0.338
21,GUGGUGUGUGUUGGCCCCUAACACACGCCG [gtspaired],-0.29
22,GUGUGUGGUGUUGGCCUCUAACACCGCACG [gtspaired],-0.521
23,GGUUGGUGUGUUGGCGUCUAACACAUCAAC [gtspaired],-0.313
24,GGUUGUGGUGUUGGCCCCUAACACCGCAGC [gtspaired],-0.353
25,UUUUUUUUUUGAGACCGCUCCGGUCUCCUA [tttttgagapaired],0.758
26,UUCCUUCUUCCUCCGCCGGAGGGAGAGGGA [ctspaired],-0.368

row,Sequence,binding signal (log2 fold change)
1,GUGUGUGGUGUUGGUAUCUAACACCGCGCA [gtspaired],-0.613
2,GUGGUGUGUGUUGGACCCUAACACACGCCG [gtspaired],-0.229
3,UUUUUUUUUUGAGACGGGCCCCGUCUCCUA [tttttgagapaired],0.736
4,UUUUUUUUUUGAGACCGGGACGGUUUCCUA [tttttgagapaired],0.48
5,GGUUGGUGUGUUGGAACCUAACACAUCGAC [gtspaired],-0.559
6,GUGUGGUGUGUUGGUGCCUAACACACUACA [gtspaired],-0.275
7,UUUUUUUUUUGAGACGGGAACUGUCUCCGG [tttttgagapaired],0.69
8,UUUUUUUUUUGAGACGGAUACCGUCUCCGG [tttttgagapaired],0.397
9,GUGGUGUGUGUUGGCGUCUAACACACGCCG [gtspaired],-0.409
10,UUUUUUUUUUGAGACGGACCCCGUCUCCAG [tttttgagapaired],0.834
11,UUUUUUUUUUGAGACUGUCACAGUCUUCUA [tttttgagapaired],0.0496
12,UUUUUUUUUUGAGAGCGAGGCGCUCUUCUA [tttttgagapaired],0.539
13,UUUUUUUUUUGAGACGGAUGCCGUUUCCAG [tttttgagapaired],0.553
14,UUUUUUUUUUGAGAGCGUGGCGCUCUCCGG [tttttgagapaired],0.181
15,UUUUUUUUUUGAGAUGGGGUCUAUCUUCUA [tttttgagapaired],0.314
16,UUUUUUUUUUGAGACUGGAUCAGUCUUCUG [tttttgagapaired],0.357
17,UUUUUUUUUUGAGAGCGAAGCGCUCUCCUA [tttttgagapaired],-0.0954
18,UUUUUUUUUUGAGACGGAGUCUGUUUCCUA [tttttgagapaired],0.194
19,GUGGUUGGUGUUGGCCUCUAACACCAACUA [gtspaired],-0.676
20,UUUUUUUUUUGAGACGGUUUCCGUCUUCUA [tttttgagapaired],0.0504
21,GUGUGUGGUGUUGGAUCCUAACACCACGCG [gtspaired],-0.799
22,UUUUUUUUUUGAGACGGGAACUGUCUUCUG [tttttgagapaired],0.955
23,UUUUUUUUUUGAGAGGGCUGCCCUCUCCAG [tttttgagapaired],1.06
24,UUUUUUUUUUGAGACUGAGGCAGUUUUCUA [tttttgagapaired],0.315
25,UUUUUUUUUUGAGAGGGAGACCCUCUCCGG [tttttgagapaired],0.242
26,UUUUUUUUUUGAGAGGGUCCCCCUCUCCUA [tttttgagapaired],0.309

row,Sequence,binding signal (log2 fold change)
1,GUUGUGUGUGUUGGCUCCUAACACACACAG [gtspaired],-0.632
2,UUUUUUUUUUGAGAGUGUAACAUUCUCCUA [tttttgagapaired],-0.0216
3,UUUUUUUUUUGAGAUGGUAGCCAUCUCCGG [tttttgagapaired],0.381
4,UUUUUUUUUUGAGACCGGAUCGGUUUCCAG [tttttgagapaired],0.514
5,GUGUGUUGUGUUGGUAUCUAACACAGCACG [gtspaired],-0.901
6,UUUUUUUUUUGAGACUGUGUCAGUUUCCGG [tttttgagapaired],0.931
7,UUUUUUUUUUGAGAACAAUGUAAUAAAAAA [ttttgagaunpaired],-0.486
8,GUGUGGUGUGUUGGUUCCUAACACACUACG [gtspaired],-0.589
9,UUUUUUUUUUGAGACUGUAACAGUCUUCUA [tttttgagapaired],0.41
10,UUUUUUUUUUGAGACUGUAUCAGUUUCCGG [tttttgagapaired],0.439
11,GUGGUGUGUGUUGGCUCCUAACACAUACCA [gtspaired],-0.125
12,UUUUUUUUUUGAGAUGGCCGCCAUCUCCUG [tttttgagapaired],0.896
13,GUGUGGUGUGUUGGAAUCUAACACAUCACG [gtspaired],-0.687
14,UUUUUUUUUUGAGAGGGCGGCCCUCUCCUA [tttttgagapaired],0.946
15,GUGUGUGGUGUUGGCACCUAACACCACGCA [gtspaired],-0.245
16,GUUGGUGGUGUUGGUCCCUAACACCACCAG [gtspaired],-0.294
17,GUGUGUGGUGUUGGCAUCUAACACCGCAUA [gtspaired],-0.683
18,UUUUUUUUUUGAGACUGCGGCAGUCUUCUA [tttttgagapaired],0.532
19,UUUUUUUUUUGAGAGGGAUCCCCUCUUCUG [tttttgagapaired],0.126
20,UUUUUUUUUUGAGAGCGUGACGUUCUUCUA [tttttgagapaired],0.531
21,UUUUUUUUUUGAGAGGGUAUCCCUCUUCUG [tttttgagapaired],0.323
22,UUUUUUUUUUGAGAUGGAAACUAUCUUCUA [tttttgagapaired],0.0871
23,GGUGGUUGUGUUGGCUUCUAACACAAUCGC [gtspaired],-0.131
24,UUUUUUUUUUGAGACGGGAUCCGUUUCCGG [tttttgagapaired],0.544
25,UUUUUUUUUUGAGACGGAGACCGUUUCCAG [tttttgagapaired],0.774
26,UUUUUUUUUUGAGACCGAGGCGGUUUCCUA [tttttgagapaired],0.758

row,Sequence,binding signal (log2 fold change)
1,UUUUUUUUUUGAGAGCGGAUCGCUCUCCGG [tttttgagapaired],0.381
2,UUUUUUUUUUGAGACUGAGGCAGUCUUCUG [tttttgagapaired],0.587
3,GGUUGUGGUGUUGGCGCCUAACACCAUAAC [gtspaired],-0.208
4,UUUUUUUUUUGAGAUCGGGACGAUCUUCUG [tttttgagapaired],0.534
5,UUUUUUUUUUGAGACUGAACCAGUUUCCAG [tttttgagapaired],-0.0501
6,UUCUCUCUUCCUCCAGUGGAGGAGGGGAGA [ctspaired],-0.596
7,UUUUUUUUUUGAGAACGACACGUUCUCCGG [tttttgagapaired],0.116
8,UUUUUUUUUUGAGAUCGAAGCGAUUUCCGG [tttttgagapaired],0.533
9,UUUUUUUUUUGAGACUGUGACAGUCUUCUG [tttttgagapaired],0.712
10,UUUUUUUUUUGAGACUGCGGCAGUCUCCUG [tttttgagapaired],0.681
11,GUGUGUUGUGUUGGACUCUAACACAGCACA [gtspaired],-0.694
12,GGUGUGUGUGUUGGCCCCUAACACAUAUAC [gtspaired],-0.3
13,GGUUGUGGUGUUGGAAUCUAACACCGCGAC [gtspaired],-0.473
14,GUGUGGUGUGUUGGCCCCUAACACACCGCG [gtspaired],-0.116
15,UUUUUUUUUUGAGACUGCGACAGUUUUCUA [tttttgagapaired],0.283
16,GUGUGUGGUGUUGGUCCCUAACACCGCGCA [gtspaired],-0.753
17,UUUUUUUUUUGAGAUGGAGGCCAUCUCCUA [tttttgagapaired],0.134
18,GUGUGUGGUGUUGGCGUCUAACACCAUACA [gtspaired],-0.424
19,GGUGGUGGUGUUGGAGUCUAACACCGCUAC [gtspaired],-0.474
20,UUUUUUUUUUGAGACUGAAACAGUUUUCUA [tttttgagapaired],-0.298
21,UUUUUUUUUUGAGAGCGUGACGCUCUCCUA [tttttgagapaired],0.217
22,UUUUUUUUUUGAGACGGAGCCCGUCUCCAG [tttttgagapaired],0.478
23,GUGGUGUGUGUUGGUUCCUAACACAUACCA [gtspaired],-0.919
24,UUUUUUUUUUGAGAGGGUCUCCCUCUUCUA [tttttgagapaired],0.465
25,GUGUGUUGUGUUGGUGCCUAACACAGCGCG [gtspaired],-0.57
